Test results published in the supplement of paper PMC11417369.
The other results are listed elsewhere or left out.

What follows are sequences tested on PfAP2-HC AP2 domain (GST-tagged) (assay: gcPBM binding intensity (ln(normalized median fluorescence intensity)); higher = stronger DNA binding).
In short: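 GST-tagged P. falciparum DNA-binding domains, expressed in E. coli (about 25 μg on average), were applied for 1 h to an Agilent 4 × 180k array of primer-extended double-stranded 36-bp intergenic genomic probes plus negative controls. The binding buffer was 1× PBS with 1% milk, 0.2 mg/ml BSA, 0.5% salmon testes DNA and 0.03% Triton X-100. Bound protein was detected with Alexa488 anti-GST antibody and scanned at 488 nm. Binding intensity is the highest Masliner-normalised natural-log median intensity across replicate spots of either probe orientation.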

Sequence	gcPBM binding intensity (ln)
AAAAAAAAATATATATAAAATTAAAAAATGTAATAT [GTGCAC_negctrl_site581]	9.61
TTATATCCCGTCCTTTATTAAAAAAATTTTTTTTCT [TGCATGCA_negctrl_site582]	9.58
ATTAAAAAAAAAAGTATACACACTTCTTAATGTCAA [CACACA_site1244]	9.54
ATGGGTTGTTCAAATAGTACATATGTAGCCCACCAT [XGTACX_site3735]	9.65
TTTAAATATATATTTAGTACTTATTCTTAAAATTTT [XGTACX_site624]	9.51
TTTTTTTTTTTTTGTGCATGTAGATTTATTGTTATA [TGCATGCA_site582]	9.61
AAAAAAGAATAGCACACACACATATATAAATATAAA [CACACA_site4518]	10.5
GTAGAGGATTAAGAATGTACACATAAATACATATTT [XGTACX_site8874]	9.67
AATTATACATACATATATATATTTATATATATATAT [GTGCAC_negctrl_site462]	9.83
GTTACATACAGATACACACACATATATATATATATA [CACACA_site4652]	10.7
TTTTTTTTTTTTTTAATTAATTACCTTTGAATGTGT [CACACA_negctrl_site393]	9.53
TAATAATTTTATAAAGTGCATAAAAATAAAAATTTT	9.51
AACAAATAAACAAAATTGGAAAATAAAAATATCAAA [CACACA_negctrl_site1125]	9.73
TCGTATATGGATTTTGCACACAATTTTAATTTAAAT [CACACA_site4635]	9.91
ATGATTTGTCTGAAATGTACATATATATATATATAT [XGTACX_site5247]	9.7
GAAAAAATATATAAATGTACATATAATAATATCATA [XGTACX_site6788]	9.69
ATATATATTTTATTATGTACATATAAATATTACACA [XGTACX_site4062]	9.57
ATTATTTTTTTATGTTGTACATAATATTTTTTAAAA [XGTACX_site1666]	9.61
ATATATATGGATGGACGTACGTATGTATGTAATTTC [XGTACX_site4135]	9.97

Sequence	gcPBM binding intensity (ln)
TTCCAACATTGTTTTTGTACATAATTAACTGTTATT [XGTACX_site5224]	9.99
CTTAAAAATAACTGCACACAAAAATAAATACCTTAT [CACACA_site2793]	10
TAATATTTATAAAATAGTACACAGAAAAAGCATTTT [XGTACX_site8948]	9.67
TAATAATGCAACCTCTGTACACAACATTATATCCAT [XGTACX_site7596]	9.76
AAAAAAAAATTTTTAAAATTTAGAAAATTTAAAAAA [GTGCAC_negctrl_site649]	9.2
TATATATAAGCGTGTACACATTCTGAGTGTTGTATA [CACACA_site4502]	9.73
ATATTTAATGTTAATTGTACATATTATATATATATA [XGTACX_site6095]	9.73
GATTATACAAAATATACACACGTGTAGACAAATATT [CACACA_site4785]	9.98
ATAATATTATTATAATGTACATATTTCGATATAAAT [XGTACX_site8808]	9.55
AAAAAAATATATATTACACACATATATACCTATATA [CACACA_site5688]	9.88
ATATATATTAATAGGTGTACATATAAAGTGTTATGT [XGTACX_site5464]	9.79
TATTGAAGTTATAAAGTGCAGATAAATATGAGTTAT [GTGCAC_site9945]	9.79
ACAAAAAATAATCAAAATGTATATATATAATATAAT [XGTACX_negctrl_site593]	9.8
AAATGCCATATAATTTTTCTTAAACATAATTGTATA [CACACA_negctrl_site1665]	9.49
ATTGTCTTCTCATATACACACTTTTATGACTATCTT [CACACA_site5696]	9.97
TGTGTAATTATATATAAGGAGAAAGAATTCATTTTT [CACACA_negctrl_site670]	9.56
ATTATCCATGCATTTACACACACACCCAAAAAAATT [CACACA_site4101]	10.3
AAAGGGGCATATATATGTACATATTATATATTTTGA [XGTACX_site2436]	9.56
TTATATATAAACATAAAAAGAAATATATTATGTATA [CACACA_negctrl_site667]	9.53

Sequence	gcPBM binding intensity (ln)
AAAGTCTCATTAAAATGTACAAAATTTTCAGCTGTA [XGTACX_site6296]	9.45
TATGTGAATATAATCACACACAATACGGAAACCCAC [CACACA_site2725]	9.99
TAATTTTTAATTGTAGCATGCAGTATTTTTAAATAT [TGCATGCA_site140]	9.37
AATACATTGTCAAATTGTACAAATTATAGAACTATT [XGTACX_site2222]	9.59
TGTTTTTATATATATGCACACAATGTACAAGTATAC [CACACA_site3529]	9.86
AATATATATATATATACACACACACCGATATATATA [CACACA_site8158]	11.2
TAACAATTAATAAAAGGTACACTTGAATATGCACCA [XGTACX_site2717]	9.42
TTAATATTTAGACATGCATGCTAATTACTATATATA [TGCATGCA_site27]	9.8
AATTTTAAGAGCTATACATGCACTTCATAAAAAGTG [TGCATGCA_site180]	9.41
ATAATAAAAAAAAATGCACACATATATATATATATA [CACACA_site8766]	9.8
GTAGAGCATAATAAAACACACACATACATACATATA [CACACA_site8217]	10.4
ATGGACATCTATTGTTGTACACATTTTCCCATAACA [XGTACX_site5429]	9.62
TTTCAAAAATGAGTTACACACACACGGATATAAATA [CACACA_site7116]	10
GAATATAAAATATATATATATATATATATATATATA [GTGCAC_negctrl_site425]	9.4
TTATAAATATAAAAATGTACAGAAAAAAAAAATAAA [XGTACX_site863]	9.76
ATAGAACTATATTGCACACATAATATATATATATAT [CACACA_site3189]	9.91
GTAAAAAATATGACAAGTACAAGAAAAGAAAAAAGT [XGTACX_site7906]	10
AAAAGATTTATACATACACACATATTATATTCACAT [CACACA_site3713]	10
